The whole screen tested about 46,000 compounds, of which about 60 (0.1%) were called active. Not shown: some 3% with an inconclusive outcome. Calls come from the whole dose curve; as a rule, active = well fitted inhibition curve with a large enough effect; inconclusive = small, poorly fitted or top-dose-only effect; inactive = no such curve, though single readings can be large or run the other way. Some of the results follow.
Assay: Primary qHTS assay for Inhibitors of ovarian cancer metastasis using an organotypic tumor microenvironment (TME) model.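 For activity change, negative = inhibition: plate controls were DMSO wells for no effect and tomatine positive control wells for full effect.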 Note: nearly all actives have a fitted effect of over 65% in size.
Settings: SKOV3ip1-GFP adhesion/invasion on 3D omental model, fluorescence; series mostly up to 45.8 µM; activity change, negative = inhibition: at the top concentration
In short: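 Primary human omental fibroblast/mesothelial 3D culture pre-formed 48 h. SKOV3ip1-GFP cells added with compounds (0.36-46 umol/L), incubated 2 h RT/16 h 37 C, fixed; GFP cells quantified at 488/509 nm.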

Activity change, negative = inhibition, inactive:
COc1ccc(OC)c(NC(=O)C2CCN(S(=O)(=O)c3ccc4c(c3)CC(C)N4C(C)=O)CC2)c1 (stereo not given) 6.01%, CCOc1ccc(NC(=O)CSc2nc3ccsc3c(=O)n2CCC(C)C)cc1 -4.51%, Cc1cc(Nc2cccc(Cl)c2)nc2ccc(NC(=O)COc3ccc(Cl)cc3)cc12 13.1%, COc1ccc(OC)c(CNC(=O)NCc2noc3ccc(C)cc23)c1 -9.35%, CCC1CN(C(=O)N2CCC(C(=O)NCc3cccc(F)c3)CC2)c2cc(C)ccc2O1 (stereo not given) -7.2%, Cc1ccc(-n2nc(C)c3c(C(=O)NCCc4ccc(S(N)(=O)=O)cc4)cc(C)nc32)cc1 7.91%, O=C(CN1C(=O)c2cccnc2Sc2ccccc21)Nc1cc(F)ccc1F 7.28%, CCN1C(=O)c2ccccc2S(=O)(=O)c2ccc(C(=O)NCc3ccccc3OC)cc21 1.77%, O=C(CSc1cn(CC(=O)N2CCCCC2)c2ccccc12)NCc1ccccc1Cl -6.65%, CC(C)c1ccc(NC(=O)c2cc3c(=O)[nH]c4ccccc4c3n2C)cc1 3.23%, Cc1ccc2oc(-c3ccc(NC(=O)c4oc5ccc(Cl)cc5c4C)cc3)nc2c1 -0.0593%, Cc1ccc(-n2nc(C)c3c(C(F)(F)F)cc(-c4cccnc4)nc32)cc1C 4.69%, COc1ccc(NC(=O)Nc2cc(C(=O)NCc3ccc(C)cc3)ccc2N2CCCC2)cc1 2.74%, O=C(c1cnn(-c2ccc(F)cc2)c1-n1cccc1)N1CCN(c2ccccc2)CC1 -17.3%, Cc1cccc(NC(=O)Cn2c(SCC(=O)NCc3ccccc3)nc3ccccc32)c1C 2.55%, COc1ccc(CNC(=O)C2(c3cccs3)CCOCC2)cc1 -4.39%, CCOC(=O)c1ccc(N=C2SC(C(=O)Nc3ccccc3)CC(=O)N2C)cc1 (stereo not given) -9.34%, CCN(CC)c1ccc(C2C(C(N)=O)=C(C)Nc3nc(SCc4ccccc4Cl)nn32)cc1 (stereo not given) -0.153%, COc1ccc(C)cc1NS(=O)(=O)c1ccc2oc(=O)c3ncn(C)c3c2c1 1.78%, CCOc1ccc(NC(=O)c2c(NCc3cccs3)sc3c2CCC(C)C3)cc1 (stereo not given) 12.1%, CCc1ccc(CCOc2ccc(CC3SC(=O)NC3=O)cc2)nc1 (stereo not given) -5.68%, CCOC(=O)C1=C(CN2CCN(c3ccc(C)cc3C)CC2)NC(=O)NC1c1ccc(OC)cc1 (stereo not given) -6.09%, CCN(CC)S(=O)(=O)c1cccc(C(=O)Nc2ccccc2C(=O)Nc2ccc(OC)cc2)c1 -9.67%, O=C(CCCCCCC(=O)Nc1cccnc1)NO -19%, Cc1ccccc1-c1nc(CN2CCC(C(=O)NC(C)C)CC2)c(C)o1 1.02%, COc1ccc(Cl)cc1NC(=O)CCn1nc(C)cc1C -3.25%, CN(C)c1ccc(C(=O)NCc2ccc3c(c2)CCN3C(=O)c2ccc(Cl)cc2)cc1 2.96%, Cc1cccc(CCNC(=O)CCc2c(C)nc3c(c(C)nn3-c3ccccc3)c2C)c1 3.55%, COc1ccc2c(c1)CC(C(=O)Nc1cc(OC)c(OC)c(OC)c1)CO2 (stereo not given) 0.812%, CCc1cccc(C)c1NC(=O)c1cc(S(=O)(=O)N2CCN(c3ccccc3)CC2)ccc1F 6.98%, CCOC(=O)c1cc2c(=O)n3ccccc3nc2n(C(C)C)c1=NC(=O)c1c(-c2c(F)cccc2Cl)noc1C 5.02%, COc1ccc(OC)c(CNc2ncnc3onc(C)c23)c1 1.3%, COc1ccc(C(=O)NCc2ccc3c(c2)CCN3C(=O)c2ccc(Cl)cc2)c(OC)c1 3.28%, CCC(Cc1ccccc1)NC(=O)c1cccc(Nc2nc3ccccc3nc2-n2nc(C)cc2C)c1 (stereo not given) -4.63%, CC(C)OCCCn1c(SCc2ccccc2Cl)nc2c(sc3ccccc32)c1=O -23.3%, Cc1cccc(NC(=O)c2ccc(Cn3nc(N4CCN(c5ccccc5)CC4)ccc3=O)o2)c1C -19.3%, CCOc1ccc(NC(=O)N2CCN(C(=O)c3nsc4ccccc34)CC2)cc1 -15.4%, COc1cc(OC)c2c(C)c(CC(=O)NCc3ccccc3OC)c(=O)oc2c1 6.82%, CCN(CC)c1nn2c(=O)c(C(=O)NCc3ccccc3Br)cnc2s1 -3.29%, Cn1nc(C(=O)NCc2ccccc2Cl)c2c1-c1ccccc1SC2 4.63%, COc1ccc(CCNC(=O)c2ccc3c(c2)CCN3S(=O)(=O)c2ccc(C)cc2)cc1OC -0.0884%, O=S(=O)(Nc1cccc(-c2ccc(N3CCOCC3)nn2)c1)c1ccc(F)c(C(F)(F)F)c1 3.76%

outcome, inactive:
CCc1ccc(NC(=O)CC2C(=O)N(c3ccc(F)cc3)C(=O)N2Cc2ccc(F)cc2)cc1 (stereo not given), COc1ccccc1CNC(=O)c1cc(S(=O)(=O)N2CCCC(C)C2)cn1C (stereo not given), CCCCN(C)CCCNC(=O)c1cn(CC)c2ccc(S(=O)(=O)N3CCc4ccccc4C3)cc2c1=O, CCOc1ccc(-c2cn3nc(CC(C)C)sc3n2)cc1, O=C(NCCSCc1ccccc1)C1CCN(S(=O)(=O)Cc2ccccc2)CC1, Cc1ccc(NC(=O)c2ccc(C)c(S(=O)(=O)N3CCCCCC3)c2)cc1, Clc1ccc(CNc2ncnc3onc(-c4ccc(Cl)cc4)c23)cc1, CN1C(=O)c2ccccc2Sc2ccc(NC(=O)N3CCN(c4cccc(Cl)c4)CC3)cc21, COc1cc(OC)cc(C(=O)Nc2cccc(-c3cn4ccsc4n3)c2)c1, CCC1CCCCN1C(=O)Cn1c(=O)n(-c2ccc(Cl)c(Cl)c2)c(=O)c2c(C)c(C(=O)N(C)C)sc21 (stereo not given), CCC1CN(C(=O)N2CCC(C(=O)NCCC3=CCCCC3)CC2)c2ccccc2O1 (stereo not given), CCOc1ccc(NC(=O)CSc2cn(CC(=O)N3CCOCC3)c3ccccc23)cc1, Cc1ccc(N(CC(=O)N2CCN(c3cccc(C)c3C)CC2)S(=O)(=O)c2c(C)nn(C)c2C)cc1, CCN(c1cc(C)cc(C)c1)S(=O)(=O)c1nnc(NC(=O)c2ccccc2C)s1, CC(=O)Nc1c(C)nn(-c2ccccc2)c1N1CCC(C(=O)NCc2cccc(F)c2)CC1, CCOc1ccc(NC(=O)C2CCC(CNS(=O)(=O)c3ccc4c(c3)CCCC(=O)N4)CC2)cc1 (stereo not given), COc1ccc(CCNC(=O)c2cc(=O)[nH]c3ccc(S(=O)(=O)N4CCCCC4)cc23)cc1OC, COc1ccc(-c2cc(C(F)(F)F)nc(SCC(=O)N(C)Cc3ccccc3)n2)cc1
